# Source: PubChem BioAssay AID651567 (National Center for Advancing Translational Sciences (NCATS), 2012)
# In all, about 1,200 compounds went through this assay and about 10 (0.8%) were called active. Roughly 4% stayed inconclusive and do not appear here. The call rests on the fitted dose curve; in most records, active means well fitted inhibition curve with a large enough effect; inconclusive means small, poorly fitted or top-dose-only effect; inactive means no such curve, though single readings can be large or run the other way. The list shows a part of the results.
# Assay: qHTS Assay to Find Inhibitors of Chronic Active B-Cell Receptor Signaling: Hit Validation in OCI-Ly3 Assay
# Details: OCI-Ly3 IkB-luciferase reporter, Chroma-Glo luminescence, 4 h; series mostly up to 46.1 µM; activity change, negative = inhibition: at the top concentration
# How it was run: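 OCI-Ly3 cells in IMDM with 0.5% FBS get compound plus 80ng/ml doxycycline (dispensed solution), 4 hrs at 37C. Chroma-Glo read of green IkB-luc and red unfused luc; green/red ratio normalized to basal (0%) and 10 uM MG-132 (100%); concentration-response curves for each signal.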
# On the % scale 0 is the no-effect control and ±100 the full control effect; potency means the concentration at half of the fitted maximal effect.
SMILES,"activity change, negative = inhibition",Potency
COc1ccccc1/C=N/NC(=S)Nc1cccnc1,inactive: -0.287%,
CN[C@H]1CCc2cc(OC)c(OC)c(OC)c2-c2ccc(N(C)CC(OC)OC)c(=O)cc21,inactive: -2.95%,
C/C(=N\NC(N)=S)c1cc(-c2ccccc2)c(-c2ccccc2)s1,inactive: -0.95%,
COc1ccc(CNC(=O)/C(C#N)=C/c2cccc(OC)c2OC)cc1,inactive: -1.25%,
CCOC(=O)C(C)Oc1cccc2c(=O)n(CC(=O)NCc3ccccc3)ccc12 (stereo not drawn),inactive: -2.48%,
CSc1nc(N(C)NC(=O)c2cccc(C)c2)c2ccccc2n1,inactive: -1.67%,
Cn1c(=S)[nH]c2c(c1=O)C(C)(C)Cc1ccccc1-2,inactive: -1.63%,
COc1ccc(N=N/C(=C\O)C(=O)c2ccco2)cc1,inactive: 0.48%,
COc1ccc(-c2cccc(-c3cc(=O)oc4cc(OC)cc(OC)c34)c2)cc1,inactive: -2.98%,
Cc1ccccc1NC(=S)NCc1ccc2[nH]c3c(c2c1)CCCC3,inactive: -3.94%,
Cc1cccc(N(C)S(=O)(=O)c2ccc(-c3cnc(C4CC4)o3)cc2)c1,inactive: -6.59%,
C=CCNC(=S)N/N=C/c1ccc(C(F)(F)F)cc1,inactive: 0.09%,
COc1cc(OC)c2c(=O)cc(-c3cccnc3)oc2c1,inactive: -1.26%,
COc1ccc(C(=O)c2cc([N+](=O)[O-])ccc2N2CCOCC2)cc1,inactive: -2.38%,
C[C@H]1C[C@@H]2[C@H]([C@@H](O)C[C@@]3(C)[C@H]2CC[C@]3(O)C(=O)CO)[C@@]2(C)C=CC(=O)C=C12,inactive: -1.52%,
Cc1cc(Cl)n2c(nc3ccccc32)c1C#N,inactive: -0.275%,
Cc1ccc(/C=N/NC(=O)c2cc(-c3ccncc3)nc3ccccc23)o1,inactive: -1.7%,
Cc1ccc([N+](=O)[O-])cc1N=Nc1c(-c2ccc([N+](=O)[O-])cc2)[nH]n(C(N)=S)c1=O,inactive: -0.101%,
Cc1c(C(=O)Oc2cccc3cccnc23)oc2ccccc12,inactive: -1.68%,
CCOc1cc(C(=O)N/N=C/C2CC=CCC2)cc(OCC)c1OCC (stereo not drawn),inactive: -1.59%,
CC(/C=C/c1ccccc1)=N\NC(N)=S,inactive: 1.46%,
O=Cc1cc2ccccc2nc1SCc1ccc(Cl)c(Cl)c1,inactive: 0.887%,
COc1cccc(N2CC(O)=C(c3nc4ccccc4s3)C2=N)c1,inactive: -1.44%,

SMILES,"activity change, negative = inhibition",Potency
CC1CCCCN1C(=S)NC(=O)c1cccs1 (stereo not drawn),inactive: -0.618%,
CCOc1ccc(CCNC(=O)c2cc(=O)[nH]c3ccc(S(=O)(=O)N4CCCCC4C)cc23)cc1OCC (stereo not drawn),inactive: -1.29%,
C=CCOc1ccc2ccccc2c1CNn1c(C)n[nH]c1=S,inactive: 0.974%,
O=C(N1CCN(c2ccccn2)CC1)N1c2ccccc2Sc2ccccc21,inactive: -2.7%,
Cc1c(C(=O)N/N=C/c2ccc(Cl)cc2)[nH]c2ccc(Cl)cc12,inactive: -5.19%,
COc1ccc2c(C#CCCO)c(-c3ccc(S(C)(=O)=O)cc3)sc2c1,inactive: 0.142%,
COc1cc(C(=O)N/N=C(\Cc2ncc[nH]2)c2ccccc2)cc(OC)c1OC,inactive: -0.575%,
N#CC1=C(N)C(C#N)(C#N)[C@H](c2cccnc2)[C@H]2CN(C(=O)OCc3ccccc3)CC=C12,inactive: -3.21%,
N#Cc1c(NC(=O)CSc2ncn[nH]2)sc2c1CCCC2,inactive: -0.226%,
N#Cc1c(NC(=O)/C=C/c2ccco2)sc2c1CCCC2,inactive: -2.35%,
Cc1ncc(CO)c2c1Oc1nc(-c3ccccc3)nc(SCC(=O)N3CCOCC3)c1C2,inactive: -2.91%,
COCCNC(=S)N/N=C(\C)c1ccc(Cl)s1,inactive: -1.77%,
CC[C@]12c3[nH]c4cc(CCC(=O)N(C)C)ccc4c3CCN1C(=O)[C@@H](CC(=O)NCc1ccco1)C[C@@H]2C(=O)N1CCN(C(=O)c2ccco2)CC1,inactive: -1.86%,
CCOc1c(OC)cccc1C1CC(=O)Nc2cc(OC)c(OC)cc21 (stereo not drawn),inactive: -0.312%,
COc1ccc(Nc2nc(N)nc(CCl)n2)cc1,inactive: 0.223%,
CC1CCc2c(sc(NC(=O)CSc3nc(N)cc(=O)[nH]3)c2C(N)=O)C1 (stereo not drawn),inactive: -5.77%,
CCOC(=O)c1c(C)[nH]c(C(=O)N/N=C/c2ccc(Br)cc2)c1C,inactive: -0.24%,
Cc1cc(C(=O)N/N=C/c2ccc(N(C)C)cc2)c2ccccc2n1,inactive: -0.328%,
C/C(=N\NC(=O)C(C)n1nc(C)c([N+](=O)[O-])c1C)c1ccccc1O (stereo not drawn),inactive: -0.129%,
C/C(=N/NC(=O)COc1cc(C)ccc1C(C)C)C(=O)O,inactive: -0.653%,
CCCCN(C(=O)CSc1nc2ccccc2n1CC)C1CCS(=O)(=O)C1 (stereo not drawn),inactive: 0.871%,
CCCCn1c(-c2csc(C(C)C)c2)n[nH]c1=S,inactive: -0.709%,
COc1cc(/C=N/NC(=O)NC2CCCCC2)ccc1O,inactive: -1.04%,

SMILES,"activity change, negative = inhibition",Potency
CC1(C)Cc2c(sc3ncnc(NNC(=S)NCc4ccccc4)c23)CO1,inactive: -1.54%,
Cc1ccc(C)c(-n2c3nc(=O)[nH]c(=O)c-3cc3cc([N+](=O)[O-])ccc32)c1,inactive: -7.4%,
COc1cc2c(cc1[N+](=O)[O-])n(C(C)C)c(=O)n2C(C)C,inactive: -0.244%,
CCOc1c(Cl)cc(CNCC(C)C)cc1OC,inactive: -0.569%,
CC(C)COc1ccc(C(=O)Nc2cc(S(=O)(=O)N3CCOCC3)ccc2N2CCCC2)cc1,inactive: -0.217%,
Cc1cccc(NC(=S)N/N=C/C(C)c2ccccc2)c1C (stereo not drawn),inactive: -2.93%,
CCN(CC)c1ccc2c(C)c(CO)c(=O)oc2c1,inactive: -0.0824%,
COc1ccccc1-c1cc(C(=O)Nc2cccnc2)no1,inactive: 13.9%,
O=C(NN=C(c1ccccc1)c1ccccn1)c1ccccc1,inactive: 53%,
Cc1cc(C(=O)OCC(=O)NCc2ccco2)c(C)n1-c1ccc(F)cc1,inactive: -5.11%,
CCONC(=O)Nc1ccccc1[N+](=O)[O-],inactive: -0.444%,
CCn1c(=O)c([N+](=O)[O-])c(Cl)c2ccccc21,inactive: -0.13%,
O=C(Oc1ccc(F)cc1C(=O)/C=C/c1cccs1)c1cccc([N+](=O)[O-])c1,inactive: -4.26%,
ClCc1nc2ccccc2c2ccccc12,,active: 13 µM
CCCCn1c(SCC(=O)c2cc(OC)ccc2OC)nc2cc(S(N)(=O)=O)ccc21,inactive: -0.544%,
S=c1nc2ccccc2c2nc(-c3ccccc3Br)[nH]n12,inactive: 83.2%,
COc1cc(-c2noc(C)c2/C=C/c2ccc(N)cc2)cc(OC)c1OC,inactive: -8.76%,
Cc1c(CCC(=O)O)c(=O)oc2cc3oc4c(c3cc12)CCCC4,inactive: -2.09%,
CC1=CC(C)(C)N2C(=O)C(=O)c3cc(OC(=O)c4ccco4)cc1c32,inactive: -12.4%,
CC(C)n1c(SCC(=O)Nc2ccccc2)nc2c1c(=O)n(C)c(=O)n2C,inactive: 0.254%,
CCN1C(=O)c2cccc3c(S(=O)(=O)Nc4nc(C)cs4)ccc1c23,inactive: -5.86%,
CC(C)N1C(=O)/C(=C\c2nc3ccccc3c(=O)[nH]2)c2ccccc21,inactive: -26.8%,
